Measured values: PubChem BioAssay AID1347165 (National Center for Advancing Translational Sciences (NCATS), 2019)
Out of some 220,000 compounds screened, about 5,700 (2.6%) were called active. The inconclusive results got no clear call from the source; some entries with a clear call stand among them for comparison. Calls follow the shape of the dose curve; as a rule, active = well fitted inhibition curve with a large enough effect; inconclusive = small, poorly fitted or top-dose-only effect; inactive = no such curve, though single readings can be large or run the other way. Potencies of inconclusive entries are doubtful fits and often do not repeat.

The compounds below were run against Lysine-specific demethylase 5B (Homo sapiens) (UniProt Q9UGL1) (assay: Primary screen for KDM5B Histone Demethylases FDH-coupled qHTS). Settings: FDH-coupled NADH fluorescence (FDH is formaldehyde dehydrogenase); activity change, negative = inhibition: at 57.7 µM (top of the series) unless noted.
Method in brief: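 qHTS format, multiple compound concentrations. Buffer 50 mM HEPES pH 7.5/0.01% Tween-20; 200 nM KDM5BΔAP final; 10 min compound preincubation; substrate-mix levels 12.5 µM peptide, 25 µM α-KG, 0.25 mM NAD⁺; 30 min RT; ΔRFU.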
Also: nearly all actives have a fitted effect of over 70% in size.
For activity change, negative = inhibition in this document: 0% is about no effect.
Potency is read from the fitted curve at half-maximal effect; tags tell the direction and shape of the fitted curve.

Sequence of UniProt Q9UGL1 (Q9UGL1 whole entry, looked up): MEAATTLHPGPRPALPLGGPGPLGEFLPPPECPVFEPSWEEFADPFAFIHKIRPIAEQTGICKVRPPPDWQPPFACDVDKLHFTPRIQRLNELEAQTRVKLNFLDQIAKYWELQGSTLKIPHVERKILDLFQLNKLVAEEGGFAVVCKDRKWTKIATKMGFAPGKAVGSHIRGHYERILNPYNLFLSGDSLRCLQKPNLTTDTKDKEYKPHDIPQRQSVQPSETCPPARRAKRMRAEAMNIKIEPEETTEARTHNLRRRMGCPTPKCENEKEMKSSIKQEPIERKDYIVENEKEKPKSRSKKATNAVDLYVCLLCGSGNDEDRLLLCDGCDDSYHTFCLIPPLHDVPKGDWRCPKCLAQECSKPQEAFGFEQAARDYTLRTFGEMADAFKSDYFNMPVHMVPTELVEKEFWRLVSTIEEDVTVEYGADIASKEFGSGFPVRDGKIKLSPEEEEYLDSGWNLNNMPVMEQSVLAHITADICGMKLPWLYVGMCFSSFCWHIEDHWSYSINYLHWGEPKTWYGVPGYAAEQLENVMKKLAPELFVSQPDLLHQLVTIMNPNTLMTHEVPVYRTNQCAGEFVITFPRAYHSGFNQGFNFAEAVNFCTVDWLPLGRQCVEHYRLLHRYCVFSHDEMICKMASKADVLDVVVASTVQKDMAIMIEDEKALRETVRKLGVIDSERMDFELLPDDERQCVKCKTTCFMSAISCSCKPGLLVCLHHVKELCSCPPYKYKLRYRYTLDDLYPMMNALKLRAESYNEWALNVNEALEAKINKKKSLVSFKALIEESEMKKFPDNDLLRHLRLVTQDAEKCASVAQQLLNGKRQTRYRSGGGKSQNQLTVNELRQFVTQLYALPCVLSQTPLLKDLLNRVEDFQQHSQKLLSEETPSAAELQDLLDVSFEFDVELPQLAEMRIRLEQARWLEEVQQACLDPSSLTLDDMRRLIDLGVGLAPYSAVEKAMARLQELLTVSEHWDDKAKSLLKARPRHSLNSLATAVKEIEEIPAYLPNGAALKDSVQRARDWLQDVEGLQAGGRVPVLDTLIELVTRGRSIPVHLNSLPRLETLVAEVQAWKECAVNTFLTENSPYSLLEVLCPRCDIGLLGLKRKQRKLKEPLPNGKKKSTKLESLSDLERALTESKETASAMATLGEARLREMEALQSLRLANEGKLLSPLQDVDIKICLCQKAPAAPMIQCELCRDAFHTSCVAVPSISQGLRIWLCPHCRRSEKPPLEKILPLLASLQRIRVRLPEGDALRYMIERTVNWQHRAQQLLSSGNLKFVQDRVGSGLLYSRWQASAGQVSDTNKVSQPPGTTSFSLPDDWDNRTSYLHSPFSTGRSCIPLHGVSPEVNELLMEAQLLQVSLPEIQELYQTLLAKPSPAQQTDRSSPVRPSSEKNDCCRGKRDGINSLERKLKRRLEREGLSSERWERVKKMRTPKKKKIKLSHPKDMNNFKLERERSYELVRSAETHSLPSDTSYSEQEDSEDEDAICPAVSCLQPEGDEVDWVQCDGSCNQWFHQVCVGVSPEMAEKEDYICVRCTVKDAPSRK

| Structure (SMILES) | Potency | activity change, negative = inhibition |
| --- | --- | --- |
| CCCCCCOc1ccc(/C=C/C(=O)Nc2sc3c(c2C(=O)OC)CCC3)cc1OC | inconclusive: 3.16 µM [inhibitor, partial curve, poor fit] | – |
| CCc1c(C)sc(NC(=O)c2cccnc2)c1C#N | – | inactive: 14.7% |
| CN1c2ccc(Cl)cc2-c2nc(SCC(=O)NCc3ccc(F)cc3)ncc2S1(=O)=O | inconclusive: 25.1 µM [inhibitor, partial curve, poor fit] | – |
| Cc1nn(-c2cccc(Br)c2)c(C)c1[C@@H]1C=C[C@@H](NC(=O)CC(C)(C)CC(=O)O)C1 | – | inactive: -11.6% |
| CC(C)(O)CNC(=O)Nc1ccc(Cl)c(Cl)c1 | – | inactive: -2.65% |
| CC(=O)c1ccc(NC(=O)COC(=O)c2cc(C)nc3ccccc23)cc1 | inconclusive: 25.1 µM [inhibitor, single point] | – |
| O=C(c1cc(-c2ccco2)[nH]n1)N1CCN(c2ccc(N3CCOCC3)nn2)CC1 | inconclusive: 25.1 µM [inhibitor, partial curve, poor fit] | – |
| CC1(C)[C@H]2CC[C@@H](CNC(=O)c3ccccn3)[C@@H]1C2 | – | inactive: -1.48% [at 86.2 µM] |
| CCCCNC(=O)CCC1N=C2c3ccccc3N=C(SCC(=O)NCCc3ccc(OC)c(OC)c3)N2C1=O (stereo unspecified) | inconclusive: 17.8 µM [inhibitor, partial curve, poor fit] | – |
| Cc1ccc(C(CC(=O)N2CCC(C)CC2)c2cn(C)c3ccccc23)cc1 (stereo unspecified) | inconclusive: 31.6 µM [inhibitor, single point] | – |
| CC(C)c1ccc(CN2CC[C@@H]3OCC(=O)N(C(C)C)[C@H]3CC2)cc1 | inconclusive: 63.1 µM [inhibitor, partial curve, poor fit] | – |
| COc1cccc(CC(=O)N[C@@H]2CN(c3ncccn3)C[C@H]2CO)c1 | active: 25.1 µM | – |
| COc1cc(CNC(=O)c2cc3cccc(OC)c3oc2=O)ccc1OC(F)F | – | inactive: 13.8% |
| Cc1ccc2nc(-c3ccc(NC(=O)Cc4ccccc4)cc3)sc2c1 | inconclusive: 12.6 µM [inhibitor, partial curve, poor fit] | – |
| Cc1ccccc1OCCC(=O)OCC(=O)Nc1ccc(N2CCOCC2)cc1 | inconclusive: 28.2 µM [inhibitor, partial curve, poor fit] | – |
| CCN(CC)CCNC(=O)CCn1c(=O)c2cccn2c2cccnc21 | inconclusive: 17.8 µM [inhibitor, partial curve, poor fit] | – |
| Cc1ccc(NC(=O)CN(Cc2ccco2)Cc2ccccc2O)cc1C | inconclusive: 20 µM [inhibitor, partial curve, poor fit] | – |
| O=C(Cn1ncc2c3ccccc3n(Cc3ccccc3)c2c1=O)NCc1cccs1 | inconclusive: 8.91 µM [inhibitor, partial curve, poor fit] | – |
| O=C1C(C2=CCCCC2)CCCC1C1=CCCCC1 (stereo unspecified) | – | inactive: -10.2% |
| COC(=O)c1ccc(C2Sc3ccccc3NC3=C2C(=O)c2ccccc23)cc1 (stereo unspecified) | – | inactive: -11.6% |
| CCc1nc2ccc(C(=O)N3CCN(c4ccccc4F)CC3)cc2nc1CC | inconclusive: 35.5 µM [inhibitor, partial curve, poor fit] | – |

| Structure (SMILES) | Potency | activity change, negative = inhibition |
| --- | --- | --- |
| O=C1CC2(CCN(CC3CCCC3)C2)Nc2ccccc2N1 (stereo unspecified) | inconclusive: 56.2 µM [inhibitor, partial curve] | – |
| Cc1ccc(CN(C(=O)CC23CC4CC(CC(O)(C4)C2)C3)C2CC2)o1 | – | inactive: 9.18% |
| O=C(NC1CC1)c1ccc(C2Nc3cc(C(F)(F)F)ccc3S(=O)(=O)N2)cc1 (stereo unspecified) | inconclusive: 20 µM [inhibitor, partial curve, poor fit] | – |
| COc1cc(CNCc2ccccc2C)ccc1OCC(O)CN1CCC(O)CC1 (stereo unspecified) | inconclusive: 10 µM [inhibitor, partial curve, poor fit] | – |
| Cn1c(C(=O)N2CCNc3cnc(Nc4cccc(C(F)(F)F)c4)nc3C2)cc2ccccc21 | inconclusive: 17.8 µM [inhibitor, partial curve, poor fit] | – |
| Cn1ccnc1CN1C[C@@H](F)[C@@H](OCc2nc3ccc(F)cc3[nH]2)C1 | inconclusive: 39.8 µM [inhibitor, partial curve, poor fit] | – |
| COc1cccc(Nc2nnc(-c3cc4ccc(O)cc4oc3=O)s2)c1 | inconclusive: 31.6 µM [inhibitor, partial curve, poor fit] | – |
| CCN(Cc1cccs1)Cc1cc(=O)oc2cc(C)c(C)cc12 | – | inactive: -16.6% |
| COc1cccc(C2CC(=O)Nc3c2c(=O)n(C)c2nc4ccccc4n32)c1OC (stereo unspecified) | inconclusive: 3.98 µM [inhibitor, partial curve, poor fit] | – |
| Cn1c(C(=O)NCc2ccoc2)nc2nc(-c3ccccc3)c(Cl)cc21 | active: 35.5 µM | – |
| Cc1ccc(-n2nc3cc(C)c(NC(=O)c4ccc(-c5ccccc5)o4)cc3n2)cc1 | inconclusive: 3.16 µM [inhibitor, partial curve, poor fit] | – |
| COc1ccc(C(=O)NCc2nnc3ccc(-c4ccccc4)nn23)c(OC)n1 | inconclusive: 10 µM [inhibitor, partial curve] | – |
| CN1CCCC2(CCN(c3ccc(C#N)cn3)C2)C1=O (stereo unspecified) | – | inactive: -24.6% |
| Cc1ccc(-c2cc(C(=O)OCC(=O)NC34CC5CC(CC(C5)C3)C4)c3ccccc3n2)o1 | inconclusive: 22.4 µM [inhibitor, partial curve, poor fit] | – |
| Cc1cc(=O)n2c3ccccc3n(CC(O)CN3CCN(Cc4ccccc4)CC3)c2c1C#N (stereo unspecified) | inconclusive: 28.2 µM [inhibitor, single point] | – |
| Cc1ccc(C(=O)N2CCC3(CC2)N=C(c2ccc(Cl)cc2)NO3)cc1F | inconclusive: 28.2 µM [inhibitor, partial curve, poor fit] | – |
| Cc1cccc(NC(=O)C2CCCN(C(=O)Nc3ccc(F)cc3)C2)c1 (stereo unspecified) | – | inactive: -16.6% |
| Cn1cc(C(=O)N2CCC3(CC2)CN(c2ncccn2)CC3CO)cn1 (stereo unspecified) | active: 25.1 µM | – |
| COc1cc2cc(CN3CCC(N(C)C)C3)c(-c3cccc(Cl)c3)nc2cc1OC (stereo unspecified) | inconclusive: 14.1 µM [inhibitor, partial curve, poor fit] | – |
| O=C(Cc1ccc(OC(F)(F)F)cc1)NCc1nnc2ccc(-c3ccc(F)cc3)nn12 | inconclusive: 22.4 µM [inhibitor, partial curve, poor fit] | – |
